Results published in PubChem BioAssay AID504466 (National Center for Advancing Translational Sciences (NCATS), 2011).
In all, about 330,000 compounds went through this assay and about 4,200 (1.3%) were called active. The inconclusive results got no clear call from the source; some entries with a clear call stand among them for comparison. Calls follow the shape of the dose curve; as a rule, active = well fitted activation curve with a large enough effect; inconclusive = small, poorly fitted or top-dose-only effect; inactive = no such curve, though single readings can be large or run the other way. Potencies of inconclusive entries are doubtful fits and often do not repeat.

Experiment: qHTS screen for small molecules that induce genotoxicity in human embryonic kidney (HEK293T) cells expressing luciferase-tagged ELG1; also: nearly all actives have a fitted effect of over 60% in size; as to activity change, positive = activation: % of control where 0% means no effect
Details: HEK293T ELG1-luciferase reporter, luminescence, 16 h; series mostly up to 46 µM; activity change, positive = activation: at the top concentration
In short: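 HEK293T cells expressing luciferase-tagged ELG1 were treated with compound or DMSO for 16 hr at 37°C. Luciferase activity was then read after 30 min with ONE-Glo at room temperature; rising signal flags genetic stress.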
Potency is read from the fitted curve at half-maximal effect; tags tell the direction and shape of the fitted curve.

Row | Compound | activity change, positive = activation | Potency
1 | CCOc1ccc(OCCC(=O)OCC(=O)Nc2ccc3c(c2)OCO3)cc1 | inactive: 3.25% | –
2 | O=C(OCC(=O)N1CCc2ccccc21)c1ccccc1 | – | inconclusive: 11.2 µM [activator, partial curve, poor fit]
3 | O=C(Oc1ccc(OC(=O)N2CCOCC2)cc1)c1ccccc1 | – | inconclusive: 20.6 µM [activator, partial curve]
4 | O=C(CSc1ccc(-c2cccs2)nn1)c1cccs1 | – | inconclusive: 18.3 µM [activator, partial curve, poor fit]
5 | O=C(Nc1ccccc1F)C1COc2ccccc2O1 (stereo not given) | – | inconclusive: 9.2 µM [activator, partial curve, poor fit]
6 | COc1ccc(-n2nc3cc(C)c(NC(=S)NC(=O)c4ccccc4C)cc3n2)cc1 | – | inconclusive: 18.4 µM [activator, single point]
7 | Cc1c(NC(=O)c2cc3ccccc3oc2=O)c(=O)n(-c2ccccc2)n1C | – | inconclusive: 20.6 µM [activator, partial curve]
8 | CC(=O)Nc1ccc2nc(NC(=O)c3cccs3)sc2c1 | – | inconclusive: 2.06 µM [activator, full curve]
9 | COc1ccccc1NC(=O)N1CCC(NC(=O)C(Cc2ccccc2F)NC(C)=O)CC1 (stereo not given) | inactive: 0.525% | –
10 | O=C(COc1ccccc1O)Nc1ccccc1Cl | – | inconclusive: 14.6 µM [activator, partial curve, poor fit]
11 | Cc1ccc(NC(=O)c2ccc(NC(=O)c3ccccc3)cc2)cc1C | – | inconclusive: 16.4 µM [activator, partial curve, poor fit]
12 | COc1ccc(C2C3=C(CCCC3=O)Nc3nc(SCc4ccccc4)nn32)cc1OC (stereo not given) | – | inconclusive: 14.6 µM [activator, partial curve, poor fit]
13 | Cc1ccc(P(=O)(CSC(=N)N)c2ccc(C)cc2)cc1 | – | inconclusive: 29.1 µM [activator, partial curve, poor fit]
14 | Clc1ccc(-n2nnc(-c3nccs3)n2)cc1Cl | – | active: 5.17 µM
15 | CCOC(=O)C1=C(O)C(=O)N(Cc2ccccc2)CC1 | inactive: -0.0266% | –
16 | Cc1c(NC(=O)c2cc(-c3ccc(Cl)cc3)on2)c(=O)n(-c2ccccc2)n1C | inactive: -9.81% | –
17 | CC(C)(C)c1ccc(NC(=O)c2ccccc2)c([N+](=O)[O-])c1 | inactive: -9.56% | –
18 | Cc1cccc(-c2cc3nc(C)c(C)c(NCCCn4ccnc4)n3n2)c1 | inactive: -9.69% | –
19 | CSc1ncc(OCc2ccccc2)c(=O)[nH]1 | inactive: 4.38% | –
20 | COc1cccc2cc(-c3ccccc3)c(=O)oc12 | – | inconclusive: 6.51 µM [activator, partial curve]
